Some of the results follow. At the low end of the ranking, values are background and their order means little.

Here are results for 109 sequences from paper PMC10668032.

In this test the target is SIX1 homeodomain (reference allele) (UniProt Q15475). The test can be described thus: universal protein binding microarray. Particulars: Universal all-10-mer PBM (8x60K, AMADID 030236), 300 nM GST-tagged protein, Alexa Fluor 488 anti-GST; buffer, salt, pH and temperature not stated; high values mean tight binding; most listed sequences are background and not binding sites; double strand, one strand shown.
For the sequence ATACACTC, the binding signal amounted to 0.225 E-score.

Take AAACTCCG: the binding signal is -0.181 E-score.

As to ACCAGTAA, the binding signal came to 0.0362 E-score.

On to CAACCGGC, for which the binding signal is -0.0315 E-score.

For AGCTTCTC, the binding signal amounted to 0.0127 E-score.

As for CCTGGGTA, the binding signal worked out at 0.0317 E-score.

In the case of GGTCACCA, the binding signal was -0.205 E-score.

On to GGCACCCC, for which the binding signal is -0.108 E-score.

Turning to ATACCTGC, the binding signal stood at 0.342 E-score.

For TGTCTCAA, the binding signal was 0.0904 E-score.

Take AGCACTTC: the binding signal is -0.312 E-score.

For the sequence CTGCGGGA, the binding signal was -0.14 E-score.

With AAAGCACT, the binding signal was determined as 0.0753 E-score.

On to AAAAATCC, for which the binding signal worked out at 0.0961 E-score.

Regarding CATGCGAC, the binding signal is 0.0166 E-score.

Take CCCCCTCC: the binding signal is -0.098 E-score.

As to CATCCTGG, the binding signal was determined as 0.0578 E-score.

With AAGAATGT, the binding signal is -0.151 E-score.

On to AGAGGGCT, for which the binding signal was -0.0641 E-score.

With TGAGCACA, the binding signal was -0.19 E-score.

In the case of GGAGGTTA, the binding signal is -0.0541 E-score.

On to ATGTCGTG, for which the binding signal was -0.0388 E-score.

AGGCCCCA: the binding signal is -0.242 E-score.

As for GCTGATGA, the binding signal worked out at 0.0845 E-score.

On to CCGGTATA, for which the binding signal came out at 0.343 E-score.

Turning to CGCATCGC, the binding signal turned out to be 0.0135 E-score.

Consider ACACGCCA, for which the binding signal stood at 0.0232 E-score.

In the case of CCGAGCGG, the binding signal stood at 0.0797 E-score.

With ACAAGATG, the binding signal stood at 0.0934 E-score.

Consider AAGAAAGT, for which the binding signal is -0.29 E-score.

With CAAAGGGA, the binding signal amounted to 0.0166 E-score.

For AAGCGGCG, the binding signal was -0.245 E-score.

GGAAACCA: the binding signal was -0.106 E-score.

In the case of TAACGCGA, the binding signal is -0.094 E-score.

As for ATGCAATG, the binding signal was -0.0906 E-score.

For TGAGGTAA, the binding signal is -0.129 E-score.

For GAGGGCCA, the binding signal was -0.283 E-score.

Take ATCAGACA: the binding signal is 0.152 E-score.

For the sequence CTCAATTA, the binding signal is -0.0399 E-score.

For CATGAGGG, the binding signal was -0.105 E-score.

Take GCAAAACA: the binding signal was -0.134 E-score.

For the sequence ACGTTGTC, the binding signal is -0.221 E-score.

Take CTGAAAAA: the binding signal was -0.27 E-score.

In the case of CAGCATCC, the binding signal was -0.0888 E-score.

As to CTACCCAG, the binding signal came to 0.0526 E-score.

Turning to AGAAAAGA, the binding signal was -0.221 E-score.

Take AACAACAC: the binding signal worked out at 0.103 E-score.

In the case of CCAATCCA, the binding signal is 0.0928 E-score.

As for CCTTAGCG, the binding signal was -0.125 E-score.

As for ACATGCAA, the binding signal is -0.154 E-score.

Take CGATTTAA: the binding signal was -0.173 E-score.

With CTTGGAAA, the binding signal is -0.141 E-score.

For the sequence CCCCGATC, the binding signal came to 0.346 E-score.

AGAATTAC: the binding signal was -0.0355 E-score.

Regarding CGCGGTTA, the binding signal was found to be 0.0518 E-score.

Take ACGCCCCA: the binding signal came to 0.0741 E-score.

Turning to ATCAGACG, the binding signal came out at 0.15 E-score.

In the case of CTAAGCCC, the binding signal was -0.151 E-score.

For AGGACAGC, the binding signal is -0.225 E-score.

With AAATCGAA, the binding signal was -0.226 E-score.

Consider AGGTTGCC, for which the binding signal was -0.124 E-score.

Turning to AACCACGT, the binding signal is -0.134 E-score.

Turning to CTGGCTTC, the binding signal is -0.122 E-score.

Regarding ACAAGGCA, the binding signal was -0.204 E-score.

For the sequence CATGCATC, the binding signal worked out at 0.0608 E-score.

As for ACCCTTAC, the binding signal was -0.0667 E-score.

Consider GCAGCAAA, for which the binding signal was -0.317 E-score.

In the case of CAAATGCG, the binding signal was -0.0736 E-score.

GTTGCATA: the binding signal was determined as 0.0748 E-score.

In the case of AGGTCCTG, the binding signal is -0.137 E-score.

Regarding ACCCATAA, the binding signal was 0.0983 E-score.

Regarding GCCGGTCA, the binding signal was -0.165 E-score.

As for CCGCGTCG, the binding signal is -0.13 E-score.

Consider AACCCCGA, for which the binding signal was found to be 0.218 E-score.

On to ATACGAAA, for which the binding signal was 0.226 E-score.

For AGGAGACC, the binding signal is -0.0106 E-score.

As to CACCATCG, the binding signal was -0.106 E-score.

Take GCAATCTA: the binding signal amounted to 0.0593 E-score.

On to ACGTGAAC, for which the binding signal is -0.206 E-score.

On to ATATAATG, for which the binding signal stood at 0.126 E-score.

As to ACTATTCC, the binding signal was -0.0871 E-score.

Take ACTAAAAC: the binding signal was -0.107 E-score.

Consider ACCTATCA, for which the binding signal worked out at 0.336 E-score.

CAGTGTAA: the binding signal was -0.117 E-score.

With AGCGCCCC, the binding signal is -0.192 E-score.

For GCGGTCCC, the binding signal was -0.204 E-score.

Consider GTCTCTCA, for which the binding signal was -0.129 E-score.

As for CTCTTACA, the binding signal is -0.0377 E-score.

On to AGTTTTAA, for which the binding signal is -0.0746 E-score.

Turning to GCGCCTCA, the binding signal was -0.223 E-score.

With CTTTAGCA, the binding signal is -0.231 E-score.

Turning to CCCGCTAG, the binding signal was -0.0925 E-score.

Regarding TAAAGGTA, the binding signal came to 0.147 E-score.

For the sequence CGCGTTAC, the binding signal is -0.174 E-score.

As to AGCCCTAC, the binding signal is -0.0572 E-score.

For GCATCTGA, the binding signal was -0.0879 E-score.

On to ACTTAAAC, for which the binding signal is -0.116 E-score.

Take GGAAGAAA: the binding signal is -0.324 E-score.

On to ACGAGAGC, for which the binding signal was -0.063 E-score.

On to TTCTTCAA, for which the binding signal was -0.0878 E-score.

Consider ACCTCCGT, for which the binding signal is -0.026 E-score.

On to CGACAGGA, for which the binding signal was -0.013 E-score.

Turning to CCTCAATA, the binding signal is -0.0599 E-score.

GACGACCC: the binding signal is -0.132 E-score.

Consider GTGCTCTA, for which the binding signal is -0.0497 E-score.

As for AACTTCCT, the binding signal was -0.273 E-score.

On to CGGCCAAA, for which the binding signal is -0.136 E-score.

For the sequence AACAGATT, the binding signal is -0.202 E-score.

With CTATGAGA, the binding signal is 0.177 E-score.
